# About 220 (0.56%) of roughly 39,000 compounds showed activity. This is one part of the list.
# System: Escherichia coli K-12 BW25113
# Assay: relative growth (OD600 normalised to plate interquartile mean) (fraction); higher = less growth inhibition, active = 0.2 or less
# Settings: 50 µM; LB; incubation time: overnight (16-24 h)
# 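Note: static incubation at 37 °C against the wild-type strain, values averaged over two biological replicates.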
row,SMILES,relative growth
1,CC(C)NC(=O)N(C)C[C@H]1Oc2c(NC(=O)Nc3ccc4c(c3)OCO4)cccc2C(=O)N([C@@H](C)CO)C[C@@H]1C,inactive: 1.02
2,COc1ccc(CN(C)C[C@H]2OCCCC[C@@H](C)Oc3ccc(NS(=O)(=O)c4ccc(OC)cc4)cc3C(=O)N([C@@H](C)CO)C[C@@H]2C)cc1,inactive: 0.988
3,CO[C@H](CN(C)C(=O)Nc1ccc(C(F)(F)F)cc1)[C@H](C)CN(Cc1ccccc1Cl)[C@H](C)CO,inactive: 1.04
4,O=C1c2c(O[C@@H]3O[C@H](CO)[C@@H](O)[C@H](O)[C@H]3O)cc(O)cc2O[C@@]1(O)Cc1ccc(O)cc1,inactive: 0.983
5,C[C@@H]1CN([C@@H](C)CO)C(=O)c2cc(NC(=O)CCN3CCOCC3)ccc2O[C@@H]1CN(C)C(=O)NC1CCCCC1,inactive: 1.02
6,C[C@@H]1CN([C@H](C)CO)C(=O)Cc2cc(NS(=O)(=O)c3cccs3)ccc2O[C@H]1CN(C)Cc1ccncc1,inactive: 1.01
7,C[C@@H]1CN([C@H](C)CO)C(=O)Cc2cc(NC(=O)Nc3ccc(F)cc3)ccc2O[C@H]1CN(C)Cc1ccc(Oc2ccccc2)cc1,inactive: 1.02
8,O=C(Cc1ccccn1)NCC[C@H]1CC[C@@H](NC(=O)CN2CCOCC2)[C@H](CO)O1,inactive: 1.02
9,Cc1cc2nc3c(=O)[nH]c(=O)nc-3n(C[C@H](O)[C@H](O)[C@H](O)CO)c2cc1C,inactive: 0.937
10,c1nc(N2CCOCC2)nc(N2CCOCC2)n1,inactive: 0.979
11,C[C@@H]1CCCCO[C@H](CN(C)S(=O)(=O)c2ccccc2)[C@H](C)CN([C@H](C)CO)C(=O)c2cc(NS(=O)(=O)c3ccc(Cl)cc3)ccc2O1,inactive: 1.09
12,Cc1ccc(S(=O)(=O)N(C)C[C@H]2Oc3ccc(NS(=O)(=O)c4c(C)noc4C)cc3C(=O)N([C@@H](C)CO)C[C@H]2C)cc1,inactive: 1.01
13,OCc1ccc(-c2cccs2)cc1,inactive: 0.977
14,Cc1ccc(S(=O)(=O)Nc2ccc3c(c2)C(=O)N([C@H](C)CO)C[C@@H](C)[C@H](CN(C)Cc2ccc4c(c2)OCO4)OCCCC[C@@H](C)O3)cc1,inactive: 0.992
15,COc1ccc(NC(=O)N(C)C[C@@H]2Oc3c(NC(=O)C4CCOCC4)cccc3C(=O)N([C@@H](C)CO)C[C@H]2C)cc1,inactive: 0.995
16,C[C@H](CO)N1C[C@H](C)[C@@H](CN(C)C(=O)Nc2ccc(C(F)(F)F)cc2)OCCCC[C@H](C)Oc2ccc(NS(=O)(=O)c3cn(C)cn3)cc2C1=O,inactive: 0.868
17,CC(/C=C/C(=O)NO)=C\c1ccccc1OCc1cn(CC(=O)N2CCN(c3ccccc3)CC2)nn1,inactive: 0.75
